# Assay results taken from the supplement of paper PMC7826260.
# This is one part of the list. Cleavage of a single-stranded DNA pool by Rep nickase domains was read by sequencing (1 h at 37 °C, 3 µM enzyme); the outer parts of the 90-letter strands are left off. Values are log2 of uncut reads against the no-enzyme pool; the lower, the more was cut; hits are not called. Reads are scaled to the total; values above 0 arise when much of the pool is cut.
# Columns and labels:
# Assay in all cases: uncleaved DNA left, log2 of reads against the no-enzyme library (log2 ratio); higher = less cleavage (more negative = more Rep cleavage of the k-mer); sequences stand for … in CTCGTCCG…ACCGGAGA
# [1] = tested on: T1, Rep nickase domain of Muscovy duck circovirus
# T1 sequence (Rep 1-111, printed without the tag): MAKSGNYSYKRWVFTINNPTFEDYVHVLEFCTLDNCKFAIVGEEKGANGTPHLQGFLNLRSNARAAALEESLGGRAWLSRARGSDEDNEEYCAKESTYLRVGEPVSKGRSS
# Procedure: (§1)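 A pool of 90-nt single-stranded DNAs with seven random bases just before the constant AC of the nick site (name = the seven bases) was cut by 3 µM recombinant His6-SUMO-tagged Rep nickase domain (300 nM DNA, 50 mM HEPES pH 8.0, 50 mM NaCl, 1 mM MnCl2, 1 h, 37 °C, three replicates). Uncut DNA was amplified and sequenced.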
# [2] = tested on: T2, Rep nickase domain of banana bunchy top virus
# T2 sequence (Rep 1-94, printed without the tag): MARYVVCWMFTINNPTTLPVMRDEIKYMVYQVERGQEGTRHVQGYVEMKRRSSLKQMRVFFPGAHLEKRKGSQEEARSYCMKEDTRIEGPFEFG
# Procedure: as §1
# [3] = tested on: T3, Rep nickase domain of cabbage leaf curl virus
# T3 sequence (Rep 1-116, printed without the tag): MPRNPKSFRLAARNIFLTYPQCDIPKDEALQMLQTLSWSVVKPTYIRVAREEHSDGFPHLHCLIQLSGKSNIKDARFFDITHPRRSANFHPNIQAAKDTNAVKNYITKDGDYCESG
# Procedure: as §1
# [4] = tested on: T4, Rep nickase domain of chickpea chlorotic dwarf virus
# T4 sequence (Rep 1-124, printed without the tag): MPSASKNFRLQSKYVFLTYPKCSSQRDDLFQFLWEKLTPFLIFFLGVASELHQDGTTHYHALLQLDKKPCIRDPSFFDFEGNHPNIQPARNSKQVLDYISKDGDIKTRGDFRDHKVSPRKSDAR
# Procedure: as §1
# [5] = tested on: T5, Rep nickase domain of faba bean necrotic yellows virus
# T5 sequence (Rep 1-98, printed without the tag): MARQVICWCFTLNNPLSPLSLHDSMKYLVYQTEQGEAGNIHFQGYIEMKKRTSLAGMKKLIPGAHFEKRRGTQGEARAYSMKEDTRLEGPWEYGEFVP
# Procedure: as §1
# [6] = tested on: T6, Rep nickase domain of maize striate mosaic virus
# T6 sequence (Rep 1-117, printed without the tag): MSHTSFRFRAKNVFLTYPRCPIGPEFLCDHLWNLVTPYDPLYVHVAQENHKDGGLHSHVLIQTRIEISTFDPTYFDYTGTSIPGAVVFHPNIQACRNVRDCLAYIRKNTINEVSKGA
# Procedure: as §1
# [7] = tested on: T7, Rep nickase domain of porcine circovirus 2
# T7 sequence (Rep 2-116, printed without the tag): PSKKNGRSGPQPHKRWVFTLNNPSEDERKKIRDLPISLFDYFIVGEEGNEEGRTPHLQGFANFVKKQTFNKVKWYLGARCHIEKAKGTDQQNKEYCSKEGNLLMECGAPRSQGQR
# Procedure: as §1
# [8] = tested on: T8, Rep nickase domain of tomato golden mosaic virus
# T8 sequence (Rep 1-124, printed without the tag): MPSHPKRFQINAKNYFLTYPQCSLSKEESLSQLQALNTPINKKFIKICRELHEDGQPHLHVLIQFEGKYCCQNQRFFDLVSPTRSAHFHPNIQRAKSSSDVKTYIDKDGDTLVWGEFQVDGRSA
# Procedure: as §1
# [9] = tested on: T9, Rep nickase domain of tomato yellow leaf curl virus
# T9 sequence (Rep 1-136, printed without the tag): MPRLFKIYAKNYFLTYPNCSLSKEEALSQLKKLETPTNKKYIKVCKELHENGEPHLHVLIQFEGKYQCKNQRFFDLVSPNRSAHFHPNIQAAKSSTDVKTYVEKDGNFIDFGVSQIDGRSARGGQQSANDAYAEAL
# Procedure: as §1
# [10] = tested on: T10, Rep nickase domain of wheat dwarf virus
# T10 sequence (Rep 1-137, printed without the tag): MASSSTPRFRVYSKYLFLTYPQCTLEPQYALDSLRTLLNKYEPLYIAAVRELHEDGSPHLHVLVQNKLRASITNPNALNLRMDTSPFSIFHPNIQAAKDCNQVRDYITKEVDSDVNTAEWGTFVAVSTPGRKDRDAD
# Procedure: as §1
Sequence,uncleaved DNA left (log2) [1],uncleaved DNA left (log2) [2],uncleaved DNA left (log2) [3],uncleaved DNA left (log2) [4],uncleaved DNA left (log2) [5],uncleaved DNA left (log2) [6],uncleaved DNA left (log2) [7],uncleaved DNA left (log2) [8],uncleaved DNA left (log2) [9],uncleaved DNA left (log2) [10]
GTTGGAC,-0.0397,0.0642,0.852,1.94,0.0874,2.17,0.214,0.0442,0.157,0.144
TGAGCCC,-0.0176,-0.044,0.191,0.334,-0.0713,0.261,-0.0673,-0.056,-0.0868,-0.0173
GCGATGC,0.0618,-0.0167,-0.122,0.405,-0.0166,0.0289,0.0343,-0.00696,-0.0963,0.0366
GGGAAAG,0.0615,0.0927,0.858,2.08,-0.0955,2.15,0.144,0.11,0.00945,0.228
AATCCCA,-0.079,0.0422,-0.102,-1.96,-0.0791,-0.285,-1.65,-0.15,-0.0175,-0.0283
ATAACAG,0.154,0.115,-0.733,-1.69,0.109,-1.17,0.19,0.0819,0.0542,-0.0619
CTTCCGA,0.0236,0.04,0.0975,0.138,0.0253,-0.529,0.295,-0.0844,0.00424,0.166
ACCCGCT,-0.217,-0.221,-0.672,-1.43,-0.138,-1.02,-0.108,-0.191,-0.202,-0.261
CGCACCT,-0.152,-0.126,-0.162,-1.2,-0.0428,-0.0501,-0.376,-0.225,-0.0948,0.0203
GTTGGTC,0.0276,0.0462,0.423,0.999,-0.0193,1.53,0.0888,0.0993,0.0371,0.00872
GAACAAC,0.0549,0.115,0.408,-0.192,-0.00536,1.21,0.144,-0.00251,0.0201,0.177
GTGGCCA,0.0258,0.192,0.484,1.28,-0.109,1.94,0.144,0.0869,0.128,0.0523
CGCAATT,-0.0785,-0.152,-0.296,-1.96,-0.136,-0.606,-1.13,-0.279,-0.076,-0.0776
TGTCACC,0.0256,0.162,0.333,0.492,0.0133,0.977,0.000128,0.139,0.107,0.148
GAATGCG,0.0322,-0.0351,-0.00238,1.17,0.0469,0.926,0.0924,-0.0573,-0.00773,-0.0425
ACTAGGA,-0.0355,-0.0623,0.0827,0.454,0.0285,-0.596,0.0739,-0.0354,-0.0534,-0.00399
GTTATTC,-0.0415,0.141,0.304,0.891,0.0315,1.54,0.201,0.0308,0.149,0.1
ACCAACA,-0.104,-0.0835,-0.425,-2.39,0.0728,-1.02,-0.0933,-0.13,-0.199,0.069
ACAAAGG,0.032,0.0359,-0.535,-0.271,0.0335,-0.921,0.194,0.0276,0.0876,0.0584
GTGAAAC,-0.089,0.0366,0.275,0.897,-0.0551,1.77,0.0289,0.0973,-0.0633,-0.00656

Sequence,uncleaved DNA left (log2) [1],uncleaved DNA left (log2) [2],uncleaved DNA left (log2) [3],uncleaved DNA left (log2) [4],uncleaved DNA left (log2) [5],uncleaved DNA left (log2) [6],uncleaved DNA left (log2) [7],uncleaved DNA left (log2) [8],uncleaved DNA left (log2) [9],uncleaved DNA left (log2) [10]
TTTGTCG,-0.256,-0.188,-0.885,0.417,-0.0623,-0.86,-0.0854,-0.268,-0.16,-0.287
CGTGTCC,-0.0659,-0.0394,0.0923,0.109,-0.038,0.268,-0.151,-0.0245,-0.0151,0.0182
AGAGTAA,-0.0491,-0.0173,0.0899,0.241,0.0512,0.0493,-0.256,0.106,0.0144,0.0187
ATCTAAC,0.0623,0.00172,-0.274,-1.6,0.0175,-0.852,0.00661,0.03,-0.0501,-0.0102
CAACCAC,-0.14,-0.0522,-0.217,-1.76,-0.0885,-0.771,-1,-0.134,-0.122,-0.0366
TCAGTGA,-0.0232,-0.0764,-0.219,-0.338,-0.0207,-0.83,0.0981,-0.063,-0.0351,-0.0262
ATCCCAA,0.0453,0.0323,0.0544,-0.142,-0.014,-0.576,-0.0444,-0.0661,-0.0558,0.0641
TACTGGG,0.122,0.0924,-0.386,-0.631,0.134,-0.859,0.226,0.0406,0.0864,0.0908
TTTTGAT,-1.62,-0.0597,0.0884,-0.295,0.0932,0.18,-2.14,-0.0471,0.00555,0.0432
GGACGGT,-0.0106,0.131,0.768,1.64,-0.00809,2.21,0.167,-0.00202,0.108,0.053
TTGACTG,-0.0256,-0.0196,-0.0607,0.526,-0.108,1.5,-0.0185,-0.078,-0.0998,-0.0687
AGAACAG,0.0061,0.0336,-0.271,-0.285,0.00149,-0.56,0.187,0.00921,0.0857,0.0792
GCTCGAG,0.0166,-0.0265,0.141,0.752,0.0742,-0.23,0.0516,-0.0214,-0.0546,0.0343
TAGTGCC,0.0113,-0.103,-0.424,-0.709,-0.153,-1.03,-2.03,-0.0505,-0.112,-0.168
TTTTGAC,-0.0425,-0.0898,0.059,-0.0931,-0.0531,-0.605,0.0365,-0.175,0.0385,-1.5e-05
AGATTTC,0.177,0.127,0.163,0.156,0.11,-0.326,0.12,0.0079,0.0807,0.102
GGCCTTC,-0.0521,0.0728,0.441,1.09,-0.0162,1.64,0.0735,-0.166,0.153,0.0544
ATTTATT,-3.63,-4.1,-1.05,-3.08,-1.03,-0.786,-4.37,-0.687,-0.0891,-1.5
GCTGATT,-0.123,-0.0132,0.114,-0.348,-0.0163,0.614,-0.141,0.0379,-0.154,-0.124
TGCTACT,-2.83,-0.271,-1.57,-2.62,-0.0549,0.507,-3.52,-0.579,-0.149,-0.85

Sequence,uncleaved DNA left (log2) [1],uncleaved DNA left (log2) [2],uncleaved DNA left (log2) [3],uncleaved DNA left (log2) [4],uncleaved DNA left (log2) [5],uncleaved DNA left (log2) [6],uncleaved DNA left (log2) [7],uncleaved DNA left (log2) [8],uncleaved DNA left (log2) [9],uncleaved DNA left (log2) [10]
TGCGGCG,-0.0324,-0.131,-0.864,-0.625,-0.0556,-0.849,-0.00701,-0.0155,-0.0661,-0.265
AAGCCCA,-0.118,-0.0216,-0.00265,-1.48,-0.0628,0.0695,-0.404,0.0181,-0.0818,0.0254
TTGCCCG,-0.39,-0.286,-0.741,-0.17,-0.0413,-0.91,-2.39,-0.0326,-0.104,-0.216
AACATGG,0.00117,0.00532,-0.508,-0.461,-0.00267,-1.01,0.106,-0.00867,0.0237,-0.106
TTAAGAG,0.153,0.11,-0.374,-0.659,0.16,-1.02,0.172,0.0552,0.203,0.0553
TTAAACC,0.0357,0.0374,0.16,-0.827,0.00305,-0.346,-0.715,0.0575,0.0563,0.0974
GCCCGGT,-0.0905,-0.19,0.159,0.469,-0.206,0.502,-0.0768,-0.178,-0.302,-0.216
GGTGATG,-0.00956,0.0358,0.237,0.78,-0.0119,1.4,0.0881,-0.0585,-0.109,-0.0677
GGTCGAT,0.0239,-0.0312,0.656,1.39,-0.0796,1.84,0.137,0.044,0.0772,0.126
AGATCTC,0.051,0.0182,0.447,0.527,-0.0582,1.08,0.00843,0.0599,0.0218,0.173
CACTCTC,-0.0767,-0.329,-0.107,-0.637,0.0394,-0.552,-2.7,0.0533,0.101,0.0831
CCATATG,-0.147,0.00749,-0.771,-0.435,-0.0312,-0.991,0.116,-0.106,-0.117,-0.0891
TGCCTTC,0.0917,0.0478,0.329,0.291,0.0543,0.225,0.0545,0.0373,0.0971,0.0556
GACCTCC,-0.0718,-0.209,-0.0232,-0.0839,-0.0944,0.338,-0.077,-0.122,-0.223,0.00789
TCTAATC,0.00592,-0.00855,0.0698,-0.0914,0.0574,-0.436,0.0607,0.105,0.0773,0.0689
ACACAAT,0.0475,0.0725,-0.245,-1.37,0.155,-0.801,0.0269,0.081,-0.0598,-0.00404
CCTCTAA,-0.0965,0.0099,-0.248,-0.493,-0.0806,-0.65,-0.00499,-0.0599,-0.128,0.0161
CACAAGC,-0.0579,0.0207,-0.156,-0.35,-0.0565,-1.07,0.0914,-0.0603,-0.0628,-0.00991
CGTCTGC,0.105,0.041,0.0372,0.34,0.0553,0.639,0.0548,0.0039,-0.0881,-0.0426
ACCTAGT,-1.03,-0.106,-0.648,-0.958,-0.0595,-1.27,-3.16,-0.162,-0.144,-0.254
